{"source": "paper PMC6919601", "about": "“Identification of Plasmodium dipeptidyl aminopeptidase allosteric inhibitors by high throughput screening” (PLoS ONE, 2019)", "note": "Among all 110,000 compounds or so, about 230 (0.21%) showed an effect of 50% or more. Some of the results follow.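 Further: 30 min substrate incubation versus DMSO and 10 µM JCP410 controls.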", "data": [{"biological_target": "DPAP1 (Plasmodium falciparum, UniProt Q8IIJ9)", "sequence (Q8IIJ9 whole entry, looked up)": "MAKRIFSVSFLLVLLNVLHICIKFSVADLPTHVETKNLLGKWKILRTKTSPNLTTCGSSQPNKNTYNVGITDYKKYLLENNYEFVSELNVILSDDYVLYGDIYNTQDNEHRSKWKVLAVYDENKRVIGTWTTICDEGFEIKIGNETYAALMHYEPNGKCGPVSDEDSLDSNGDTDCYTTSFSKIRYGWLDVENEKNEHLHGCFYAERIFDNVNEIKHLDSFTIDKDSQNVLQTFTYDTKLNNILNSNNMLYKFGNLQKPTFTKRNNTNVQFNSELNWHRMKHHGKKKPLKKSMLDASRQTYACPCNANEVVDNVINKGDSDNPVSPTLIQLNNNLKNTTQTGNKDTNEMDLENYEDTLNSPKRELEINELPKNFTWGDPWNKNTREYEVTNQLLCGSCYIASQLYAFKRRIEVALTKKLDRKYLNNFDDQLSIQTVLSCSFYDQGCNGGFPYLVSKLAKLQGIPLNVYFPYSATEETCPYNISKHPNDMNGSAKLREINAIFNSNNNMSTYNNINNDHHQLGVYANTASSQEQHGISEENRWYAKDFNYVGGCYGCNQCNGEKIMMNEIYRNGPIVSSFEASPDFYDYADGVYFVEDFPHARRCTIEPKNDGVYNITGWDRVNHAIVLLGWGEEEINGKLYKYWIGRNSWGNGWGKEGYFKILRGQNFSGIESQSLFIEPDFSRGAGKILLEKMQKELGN", "assay": "primary screen, percent inhibition; read by cleavage of a fluorogenic dipeptide substrate; higher = more effect of the substance", "design": "species or system P. falciparum D10 trophozoite lysates; single well", "units": {"% Inhibition @ 10 uM": "%"}, "values": [{"smiles": "CCCCCCNCc1ccc(Br)cc1", "% Inhibition @ 10 uM": -4.67}, {"smiles": "Cc1nc2c(C(=O)N(C)Cc3ccccc3)cnn2c(O)c1Cc1ccccc1F", "% Inhibition @ 10 uM": 0.723}, {"smiles": "CN(C)Cc1ccc2c(sc3nc4n(c(=O)c32)CCCCC4)c1O", "% Inhibition @ 10 uM": 3.32}, {"smiles": "COc1ccccc1NC(=O)CS(=O)(=O)c1ccc2ccccc2c1", "% Inhibition @ 10 uM": -5.63}, {"smiles": "Cn1cc(Cl)c(C(=O)NCc2cccc(F)c2)n1", "% Inhibition @ 10 uM": -5}, {"smiles": "Cc1cc(O)ccc1/N=C/c1c(C)nn(-c2ccc(F)cc2)c1O", "% Inhibition @ 10 uM": -0.587}, {"smiles": "N#CCNC(=O)C(CC1CCCCC1)C(=O)NCC1CCCCC1", "note": "(stereo not shown)", "% Inhibition @ 10 uM": -0.214}, {"smiles": "COc1ccc(N2C(=O)CC(N3CCCC4CCCCC43)C2=O)cc1", "note": "(stereo not shown)", "% Inhibition @ 10 uM": -3.37}, {"smiles": "Cc1ccc(-c2csc(/C(C#N)=C/c3ccc(N(C)C)cc3)n2)c(C)c1", "% Inhibition @ 10 uM": -0.268}, {"smiles": "CS(=O)(=O)N(CC(=O)Nc1cccnc1)c1cccc2ccccc12", "% Inhibition @ 10 uM": -5.58}, {"smiles": "NC(=O)CSc1nc2ccccc2n1CC(=O)N1CCCCC1", "% Inhibition @ 10 uM": -3.19}, {"smiles": "O=C(NC1CCCCCC1)c1cc(S(=O)(=O)N2CCCCC2)ccc1Cl", "% Inhibition @ 10 uM": -6.25}, {"smiles": "COc1cc(-c2nn3c(Cc4ccccc4)nnc3s2)cc(OC)c1OC", "% Inhibition @ 10 uM": 6.49}, {"smiles": "COc1ccc(C(=O)Nc2ccc(C)c(O)c2)cc1", "% Inhibition @ 10 uM": -1.42}, {"smiles": "FC(F)(F)c1cccc(N2CCN(Cc3ccc4ccccc4c3)CC2)c1", "% Inhibition @ 10 uM": -1.86}, {"smiles": "CCOc1ccc(C2C(C#N)=C(N)OC3=C2C(=O)CCC3)c(OCC)c1", "note": "(stereo not shown)", "% Inhibition @ 10 uM": -2.88}, {"smiles": "CCCc1nn(-c2ccc(F)cc2)c(O)c1/C=N/Cc1ccc(F)cc1", "% Inhibition @ 10 uM": -7.55}, {"smiles": "O=C(NCc1ccccc1)C1CCCN1S(=O)(=O)c1cccc2cccnc12", "note": "(stereo not shown)", "% Inhibition @ 10 uM": -2.42}, {"smiles": "COc1ccc(N2C(=O)c3ccccc3NC2c2ccc(F)cc2)cc1", "note": "(stereo not shown)", "% Inhibition @ 10 uM": -2.44}, {"smiles": "CC1(c2ccccc2)CC(C)(C)N(C(=O)CSC#N)c2ccccc21", "note": "(stereo not shown)", "% Inhibition @ 10 uM": -2.05}, {"smiles": "O=C(O)C1Cc2c([nH]c3ccccc23)C(c2cccnc2)N1", "note": "(stereo not shown)", "% Inhibition @ 10 uM": -3.62}, {"smiles": "O=C1C=C/C(=N\\S(=O)(=O)c2ccc3ccccc3c2)C=C1Sc1nc2ccccc2s1", "% Inhibition @ 10 uM": 9.56}, {"smiles": "Cc1ccc(C)n1-c1nnc(N2CCC(C(=O)N3CCN(C4CCCCC4)CC3)CC2)s1", "% Inhibition @ 10 uM": 7.31}, {"smiles": "Cc1cccc2sc(NC(=O)C(NS(=O)(=O)c3cccs3)c3ccccc3)nc12", "note": "(stereo not shown)", "% Inhibition @ 10 uM": 0.0654}, {"smiles": "CCSc1cc(C)nc2ncnn12", "% Inhibition @ 10 uM": 7.56}, {"smiles": "Cn1nc(C(=O)N2CCN(c3ncccn3)CC2)c2c1-c1ccccc1SC2", "% Inhibition @ 10 uM": 7.85}, {"smiles": "Cc1ccc(-c2cc(C(F)(F)F)n3nc(C(=O)N(C)Cc4cnn(C)c4C)cc3n2)cc1", "% Inhibition @ 10 uM": 0.964}, {"smiles": "Cc1cc(C)c2oc(-c3ccc(NC(=O)c4ccco4)cc3)nc2c1", "% Inhibition @ 10 uM": 0.52}, {"smiles": "O=S(=O)(c1ccc2[nH]c3c(c2c1)CCCCC3)N1CCn2c1nc1ccccc12", "% Inhibition @ 10 uM": -4.13}, {"smiles": "CCN(Cc1ccccc1)C(=O)c1nn(C)c2c1CSc1ccccc1-2", "% Inhibition @ 10 uM": 15.8}, {"smiles": "Cc1ccc(-c2cc(C(F)F)n3ncc(C(=O)N(C)C45CC6CC(CC(C6)C4)C5)c3n2)cc1", "% Inhibition @ 10 uM": 2.46}, {"smiles": "Cc1cc(=O)n2nc(N3CCCC(C(=O)NCc4ccc5c(c4)OCO5)C3)sc2n1", "note": "(stereo not shown)", "% Inhibition @ 10 uM": 6.06}, {"smiles": "CCOc1ccc(NS(=O)(=O)c2ccc(NC(=O)[C@@H]3CCCC[C@@H]3C(=O)O)cc2)cc1", "% Inhibition @ 10 uM": -0.173}, {"smiles": "CCOc1ccc(-c2cc(C)n3nc(C(=O)Nc4cccnc4Cl)cc3n2)cc1", "% Inhibition @ 10 uM": 3.44}, {"smiles": "CCN1CC2=C(OC(N)=C(C#N)C2c2cccs2)/C(=C/c2cccs2)C1", "note": "(stereo not shown)", "% Inhibition @ 10 uM": 3.05}, {"smiles": "COc1ccc(NC(=O)Nc2ccc(F)cc2)cc1", "% Inhibition @ 10 uM": 2.94}, {"smiles": "O=C(NCC12CC3CC(CC(C3)C1)C2)c1nc(-c2ccc(C(F)(F)F)cc2)no1", "% Inhibition @ 10 uM": -3.07}, {"smiles": "COc1cc2c(cc1OC)C(c1cc(OC)c(OC)c(OC)c1)NCC2", "note": "(stereo not shown)", "% Inhibition @ 10 uM": -5.74}, {"smiles": "c1ccc(-c2ccc(-c3cn4ccccc4n3)cc2)cc1", "% Inhibition @ 10 uM": 4.41}, {"smiles": "Cc1csc2nc(CNS(=O)(=O)c3ccc4c(c3)CCCC4)cn12", "% Inhibition @ 10 uM": 0.953}, {"smiles": "COc1cc(C)c(CN2CCN(CCO)CC2)cc1C", "% Inhibition @ 10 uM": -0.856}, {"smiles": "CCc1cccc(NC(=O)Nc2ccc(C)cc2)c1", "% Inhibition @ 10 uM": 2.13}, {"smiles": "CC1CCN(c2nnc(-n3cccc3CN3CCN(C)CC3)s2)CC1", "% Inhibition @ 10 uM": -3.47}, {"smiles": "O=C(O)c1cnn2c(C(F)(F)F)cc(-c3ccc(Br)cc3)nc12", "% Inhibition @ 10 uM": 5.39}, {"smiles": "CCOc1ccc(C(=O)NCCCCc2ccccc2)cc1", "% Inhibition @ 10 uM": -0.999}, {"smiles": "OC(CCCN1CCC(O)(c2ccc(Cl)cc2)CC1)c1ccc(Cl)cc1", "note": "(stereo not shown)", "% Inhibition @ 10 uM": -4.63}, {"smiles": "CCOc1ccc(Nc2cc(O)nc(O)n2)cc1", "% Inhibition @ 10 uM": 3.44}, {"smiles": "CC1(C)CC(=O)C2=C(C1)N(Cc1cccnc1)C(=O)C2(NC(=O)C1CC1)C(F)(F)F", "note": "(stereo not shown)", "% Inhibition @ 10 uM": 1.91}, {"smiles": "O=C(c1cc2c(s1)-c1ccccc1OC2)N(Cc1ccco1)C1CCCC1", "% Inhibition @ 10 uM": -4.85}]}]}
